Laboratory results as given in the supplement of paper PMC9446081.
Hit rate of the full screen: of about 39,000 compounds, about 220 (0.56%) showed activity. This is one part of the list.

System: Escherichia coli K-12 BW25113
Experiment: relative growth (OD600 normalised to plate interquartile mean) (fraction); higher = less growth inhibition, active = 0.2 or less
Settings: 50 µM; LB; incubation time: overnight (16-24 h)
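Also: static incubation at 37 °C against the wild-type strain, values averaged over two biological replicates.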

Row | SMILES | relative growth
1 | CC(=O)NC[C@H]1CN(c2ccc(N3CCN(C(=O)CO)CC3)c(F)c2)C(=O)O1 | inactive: 0.38
2 | CC(C)NC(=O)N(C)C[C@H]1OCCCC[C@@H](C)Oc2ccc(NC(=O)C3CCCCC3)cc2C(=O)N([C@H](C)CO)C[C@H]1C | inactive: 1
3 | Cc1ccc(S(=O)(=O)N(C)C[C@H]2OCCCC[C@H](C)Oc3ccc(NC(=O)Nc4cccc5ccccc45)cc3C(=O)N([C@H](C)CO)C[C@H]2C)cc1 | inactive: 1.04
4 | C[C@@H]1CCCCO[C@@H](CN(C)Cc2ccncc2)[C@H](C)CN([C@@H](C)CO)C(=O)c2cc(NC(=O)Cc3ccccc3)ccc2O1 | inactive: 0.999
5 | O=C1N[C@H](c2ccccc2)COCc2cn(nn2)CC[C@@H](Cc2ccc(C(F)(F)F)cc2)C(=O)N[C@H](c2ccccc2)COCc2cn(nn2)CC[C@H]1Cc1ccc(C(F)(F)F)cc1 | inactive: 1.01
6 | C[C@@H]1CN([C@@H](C)CO)C(=O)Cc2cc(NC(=O)Nc3ccccc3)ccc2O[C@H]1CN(C)C(=O)Nc1ccc(C(F)(F)F)cc1 | inactive: 0.975
7 | COc1ccc(S(=O)(=O)Nc2ccc3c(c2)C(=O)N([C@H](C)CO)C[C@H](C)[C@H](CN(C)Cc2ccc(Cl)c(Cl)c2)O3)cc1 | inactive: 1.01
8 | Cc1ccc(S(=O)(=O)Nc2ccc3c(c2)CC(=O)N([C@H](C)CO)C[C@H](C)[C@@H](CN(C)C(=O)Nc2cccc4ccccc24)O3)cc1 | inactive: 0.989
9 | C[C@H]1CN([C@@H](C)CO)C(=O)Cc2cc(NS(=O)(=O)c3cn(C)cn3)ccc2O[C@H]1CN(C)C(=O)Nc1ccc2c(c1)OCO2 | inactive: 1.03
10 | C[C@@H]1CN([C@@H](C)CO)C(=O)c2cc(C#CCN(C)C)cnc2O[C@H]1CN(C)C(=O)CN1CCOCC1 | inactive: 1.03
11 | COc1ccc(NC(=O)Nc2ccc3c(c2)C(=O)N([C@H](C)CO)C[C@H](C)[C@@H](CN(C)Cc2ccccc2)OCCCC[C@H](C)O3)cc1 | inactive: 0.993
12 | O=C(O)CCCCCCNC(=O)c1ccc(NCc2cn(Cc3ccc(Cn4cc(CNc5ccc(C(=O)NCCCCCCC(=O)NO)cc5)nn4)cc3)nn2)cc1 | inactive: 0.991
13 | CCCNC(=O)N1C[C@@H](O)COC[C@H]2O[C@H](CC(=O)N3CCOCC3)CC[C@@H]21 | inactive: 0.918
14 | COc1ccc([Si](C)(C)[C@H]2[C@H](CC(=O)N3Cc4ccccc4C[C@H]3CO)O[C@@]3(C(=O)N(Cc4ccc(N5CCOC5=O)cc4)c4ccccc43)[C@@H]2C)cc1 | inactive: 0.986
15 | O=C(CN1C(=O)c2ccccc2C1=O)N1CCNCC1 | inactive: 0.92
